In the supplement of paper PMC4967469:
A lower IC50 marks a more sensitive line; fits outside the tested doses are given as limits. AUC sums up the same curve from the lowest dose to the 256-fold higher top dose: 1 means no effect, lower means more sensitive. A top dose marked as inferred was calculated from the reported fits. For some of these results: Drugs with an entry number were screened twice under separate entries, and the two screens often disagree.

Assays:
Experiment in all cases: Viability of human cancer cell lines after 72 h of drug (GDSC screen)
BMN-673 = compound: Cn1ncnc1[C@H]1c2n[nH]c(=O)c3cc(F)cc(c23)N[C@@H]1c1ccc(F)cc1 [BMN-673]; settings: top dose 10 µM; top dose inferred
Protocol: (§1)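 Human cancer cell lines in 384-well plates, medium with 10% serum, drug for 72 h over a 256-fold dose range (nine 2-fold or five 4-fold steps up to the top dose). Adherent lines were fixed and stained with the nucleic acid dye Syto60, suspension lines read with resazurin; signal relative to control wells, capped at 0 and 100%. One two-parameter sigmoid per drug and line, fitted in a mixed model over all curves with the slope shared within a line.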

AZD6482 = compound: Cc1cc([C@@H](C)Nc2ccccc2C(=O)O)c2nc(N3CCOCC3)cc(=O)n2c1 [AZD6482]
Protocol: as §1

MLN4924 = compound: NS(=O)(=O)OC[C@@H]1C[C@@H](n2ccc3c(N[C@H]4CCc5ccccc54)ncnc32)C[C@@H]1O [MLN4924]; settings: top dose 1 µM; top dose inferred
Protocol: as §1

XMD11-85h = compound: COc1cc(C(=O)NC2CCN(C)CC2)ccc1Nc1ncc2c(n1)N(C1CCCC1)CCC(=O)N2C(C)C [XMD11-85h]; settings: top dose 10 µM; top dose inferred
Protocol: as §1

[1] = top dose 5 µM, screen: GDSC drug entry 1066, top dose inferred
[2] = top dose 5.12 µM, screen: GDSC drug entry 156

Row | Cell Line | AUC (BMN-673) | IC50 (BMN-673) | AUC (AZD6482; [1]) | IC50 (AZD6482; [1]) | AUC (AZD6482; [2]) | IC50 (AZD6482; [2]) | AUC (MLN4924) | IC50 (MLN4924) | AUC (XMD11-85h) | IC50 (XMD11-85h)
1 | 8-MG-BA (glioma, adherent) | 0.202 | 0.0886 µM | 0.942 | > 5 µM | 0.814 | 2.58 µM | 0.692 | 0.207 µM | 0.935 | > 10 µM
2 | 22RV1 (prostate, adherent) | 0.771 | 4.79 µM | 0.929 | > 5 µM | 0.954 | > 5.12 µM | 0.892 | > 1 µM | 0.913 | > 10 µM
3 | 639-V (bladder, adherent) | 0.64 | 1.43 µM | 0.877 | 3.74 µM | 0.76 | 1.56 µM | 0.781 | 0.35 µM | 0.958 | > 10 µM
4 | 8305C (thyroid, adherent) | 0.888 | > 10 µM | 0.891 | > 5 µM | 0.8 | 3.42 µM | 0.976 | > 1 µM | 0.96 | > 10 µM
5 | A253 (head and neck, adherent) | 0.921 | > 10 µM | 0.987 | > 5 µM | 0.956 | > 5.12 µM | 0.881 | 0.999 µM | 0.98 | > 10 µM
6 | A375 (melanoma, adherent) | 0.429 | 0.416 µM | 0.955 | > 5 µM | 0.971 | > 5.12 µM | 0.686 | 0.186 µM | 0.934 | > 10 µM
7 | EMC-BAC-1 (lung adenocarcinoma, adherent) | 0.844 | 8.7 µM |  |  |  |  | 0.952 | > 1 µM | 0.931 | > 10 µM
8 | G-MEL (melanoma, adherent) |  |  | 0.796 | 2.31 µM | 0.609 | 0.634 µM | 0.657 | 0.17 µM | 0.938 | > 10 µM
9 | GAK (melanoma, adherent) |  |  |  |  | 0.883 | 5.03 µM | 0.839 | 0.636 µM | 0.953 | > 10 µM
10 | HCC38 (breast, adherent) |  |  | 0.959 | > 5 µM | 0.818 | 3.19 µM | 0.829 | 0.689 µM | 0.968 | > 10 µM
11 | HCC1937 (breast, adherent) |  |  | 0.928 | > 5 µM | 0.858 | > 5.12 µM | 0.872 | > 1 µM | 0.969 | > 10 µM
12 | HT-29 (large intestine, adherent) |  |  | 0.986 | > 5 µM | 0.951 | > 5.12 µM | 0.86 | 0.833 µM | 0.94 | > 10 µM
13 | Jurkat (T-cell leukaemia, suspension) |  |  | 0.977 | > 5 µM |  |  | 0.705 | 0.208 µM | 0.91 | 9.73 µM
14 | K-562 (chronic myeloid leukaemia, suspension) |  |  |  |  |  |  | 0.945 | > 1 µM | 0.929 | > 10 µM
15 | MDA-MB-468 (breast, adherent) |  |  |  |  |  |  | 0.771 | 0.37 µM | 0.951 | > 10 µM
16 | NCI-H196 (small cell lung carcinoma, adherent) |  |  | 0.942 | > 5 µM | 0.931 | > 5.12 µM | 0.8 | 0.508 µM | 0.987 | > 10 µM
17 | NCI-H929 (myeloma, suspension) |  |  | 0.719 | 1.16 µM |  |  | 0.983 | > 1 µM | 0.896 | 9.06 µM
18 | NOMO-1 (acute myeloid leukaemia, suspension) |  |  | 0.785 | 2.45 µM | 0.801 | 2.91 µM | 0.738 | 0.332 µM | 0.868 | > 10 µM
19 | SW620 (large intestine, adherent) |  |  | 0.959 | > 5 µM | 0.979 | > 5.12 µM | 0.901 | > 1 µM | 0.984 | > 10 µM
20 | TC-71 (Ewing sarcoma, adherent) |  |  | 0.983 | > 5 µM | 0.992 | > 5.12 µM | 0.789 | 0.362 µM | 0.967 | > 10 µM
21 | VAL (B-cell lymphoma, suspension) | 0.931 | > 10 µM | 0.865 | 4.42 µM | 0.883 | > 5.12 µM |  |  | 0.945 | > 10 µM
22 | VMRC-MELG (melanoma, adherent) | 0.948 | > 10 µM | 0.84 | 3.69 µM | 0.874 | > 5.12 µM |  |  | 0.988 | > 10 µM
23 | VMRC-RCZ (kidney, adherent) | 0.943 | > 10 µM | 0.779 | 2.39 µM | 0.436 | 0.207 µM |  |  | 0.98 | > 10 µM
24 | WIL2-NS (lymphoid neoplasm, suspension) | 0.585 | 1.02 µM | 0.989 | > 5 µM | 0.882 | 3.7 µM |  |  | 0.944 | > 10 µM
25 | WM35 (melanoma, adherent) | 0.889 | > 10 µM |  |  | 0.896 | > 5.12 µM |  |  | 0.932 | > 10 µM
26 | WM1552C (melanoma, adherent) | 0.936 | > 10 µM |  |  | 0.849 | 3.89 µM |  |  | 0.926 | > 10 µM
27 | YH-13 (glioma, adherent) | 0.924 | > 10 µM | 0.746 | 1.67 µM |  |  |  |  | 0.953 | > 10 µM
28 | no-11 (glioma, adherent) | 0.919 | > 10 µM | 0.784 | 2.72 µM | 0.949 | > 5.12 µM |  |  | 0.981 | > 10 µM
